Laboratory results: ChEMBL document CHEMBL1201862, “PubChem BioAssay data set” (2004)
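Results reflect a 48-hour exposure of cells in 96-well plates to compound at five concentrations. GI50: concentration for 50% inhibition of growth.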 Activity calls are given as the source filed them. No stated cut-off is given here; in the data, active = GI50 up to about 1.1 µM and inactive = higher.

Each molecule was assayed on NCI-H322M (assay: NCI anticancer screen, dose series, 48 h).
With NS(=O)(=O)c1ccc(/N=N/c2ncccc2O)cc1 the GI50 was inactive: > 100 µM.
For Cc1ncc([N+](=O)[O-])n1CCNC(=O)Cn1c([N+](=O)[O-])cnc1C, the GI50 was inactive: > 100 µM.
For N=C(N)SCc1cccc2c(=O)cc(-c3ccccc3)oc12, the GI50 was inactive: 11.3 µM.
For COC(=O)c1ccc(-n2c(C)nc(=O)c(-c3ccccc3)c2C)cc1, the GI50 was inactive: > 100 µM.
In the case of O=C(OCC12CC3CC(CC(C3)C1)C2)c1ccc(NCc2cc(O)ccc2O)cc1, the GI50 is reported as inactive: 7.64 µM.
In the case of O=C(O)CCC(=O)Nc1ccc2ccccc2c1, the GI50 is reported as inactive: > 100 µM.
For CC1C(=O)C(C)C(c2ccccc2)N(N=O)C1c1ccccc1 (stereo not given), the GI50 was inactive: > 434 µM.
O=C1CCN/C(=N\C(=O)C(F)(F)F)N1CCc1c[nH]c2ccccc12 was tested, and the GI50 was inactive: > 100 µM.
COC(=O)c1ccccc1/C=C1\Cc2ccc(C)c(C)c2C1=O was tested, and the GI50 was inactive: > 100 µM.
For COC(=O)C1=C(c2ccc3c(c2)OCO3)O[C@H](c2cc(OC)c(OC)c(OC)c2)[C@H]1COC(C)=O, the GI50 was inactive: 6.55 µM.
For Clc1ccc(C2=NOC(C3CCCCC3)C2)cc1 (stereo not given), the GI50 was inactive: > 100 µM.
COC1C=CC(C(=O)[N+]2=Cc3[nH]c4ccccc4c3CC2)O1 (stereo not given) was tested, and the GI50 was inactive: > 100 µM.
For CCOC(=O)CC1c2ccc(O)cc2OC(=O)C1c1ccc([N+](=O)[O-])cc1 (stereo not given), the GI50 was inactive: 49.1 µM.
With Cc1[nH]c2ncn(Nc3ccccc3)c(=N)c2c1Cc1ccccc1 the GI50 was inactive: > 38.1 µM.
CC(C)(C)c1cc(C(=O)/C=C/C=C/c2ccccc2)cc(C(C)(C)C)c1O was tested, and the GI50 was inactive: 40.6 µM.
For COc1nc2c(c(=O)[nH]1)N=C(c1ccc([N+](=O)[O-])cc1)CC(c1ccccc1)N2 (stereo not given), the GI50 was inactive: > 100 µM.
With C=CCN(c1cc(OC)c(NC(C)=O)cc1[N+](=O)[O-])S(C)(=O)=O the GI50 was inactive: > 100 µM.
For CC(C)(C)OC(=O)C1/C(=C/CBr)CN1C(=O)OC(C)(C)C (stereo not given), the GI50 was inactive: 17.2 µM.
For Cc1c2n(c(=O)[nH]c1=O)C1OC(CO)C(O2)C1N=[N+]=[N-] (stereo not given), the GI50 was inactive: > 100 µM.
In the case of COc1ccc(C(=O)C=C2NCCN2)cc1, the GI50 is reported as inactive: > 100 µM.
With O=S1(=O)c2cnccc2N=C(NCc2cccc3ccccc23)N1c1ccccc1 the GI50 was inactive: > 90.6 µM.
In the case of Oc1ccc2c(c1)c1c(n2CCN2CCOCC2)-c2ccccc2CC1, the GI50 is reported as inactive: 56 µM.
For CN(C)CC/[N+]([O-])=C(/c1ccccc1)C12CC3CC(CC(C3)C1)C2, the GI50 was inactive: 16.8 µM.
With CC1(C)CCCC2CC2CCC(C)(C)C1=O (stereo not given) the GI50 was inactive: > 100 µM.
With C[N+]12C=CC=C1C(N1CCCC1)c1scc(-c3ccc(F)cc3)c12 (stereo not given) the GI50 was inactive: > 100 µM.
For CCC(=O)OC[n+]1ccc2c(C)c3[nH]c4ccccc4c3c(C)c2c1, the GI50 was active: 0.376 µM.
In the case of C[Si](C)(C)/N=C1\N2C(=NC1(C(F)(F)F)C(F)(F)F)Sc1ccccc12, the GI50 is reported as inactive: > 50 µM.
For N=C(c1ccccc1)N(c1ccccc1)c1ccccc1, the GI50 was inactive: > 100 µM.
In the case of O=[N+]([O-])c1ccc2sc(/C=N/c3ccc(O)cc3)cc2c1, the GI50 is reported as inactive: 39.7 µM.
Cc1cn(CC2=NCC(C)(C)CN2)c(=O)[nH]c1=O was tested, and the GI50 was inactive: > 100 µM.
CCOC(CN(C)C(=O)OCC(Cl)(Cl)Cl)OCC was tested, and the GI50 was inactive: > 100 µM.
In the case of CC(=O)c1ccc2c(c1)oc(=O)n2CCN(C)C, the GI50 is reported as inactive: > 100 µM.
In the case of CCOC(=O)C(=CNC(=S)Nc1c(CC)cccc1CC)C(=O)OCC, the GI50 is reported as inactive: > 100 µM.
Cc1ccc(/C=N/Nc2ncccn2)s1 was tested, and the GI50 was inactive: > 100 µM.
In the case of COc1cc(C(N)=O)c(OC)c(OC)c1OC, the GI50 is reported as inactive: 87.5 µM.
With Cc1cccc(N2C(=O)C(=O)C(c3nc4ccccc4s3)C(=O)C2=O)c1C the GI50 was inactive: > 100 µM.
For CCCN1CN(C(C(=O)N[C@@H]2C(=O)N3C2SC(C)(C)C3C(=O)O)c2ccc(O)cc2)CSC1=S (stereo not given in full), the GI50 was inactive: > 100 µM.
CCCCNC(=O)c1cc2c(cc1Cl)Sc1nccn1S2(=O)=O was tested, and the GI50 was inactive: 91.4 µM.
In the case of CCOc1ccc(NC(=O)CC2C(=O)Nc3ccccc3[S+]2[O-])cc1 (stereo not given), the GI50 is reported as inactive: > 100 µM.
With O=C1c2ccccc2C(=O)N1C/C=N/NS(=O)(=O)c1ccc(F)cc1 the GI50 was inactive: > 100 µM.
With C=C(Br)CN(C(C)=O)C1CCCCC1 the GI50 was inactive: > 100 µM.
In the case of CC[C@H](CCCC[C@H]1CC[C@@H]2CC(=O)C[C@H]12)OC, the GI50 is reported as inactive: > 100 µM.
Cc1ccc(C(=O)CCl)o1 was tested, and the GI50 was inactive: > 10 µM.
CO[C@@H]1C[C@H]2[C@@H]3CC[C@H]([C@H](C)COC(C)=O)[C@@]3(C)CC[C@@H]2[C@@]2(C)CC[C@H]3C[C@]312 was tested, and the GI50 was inactive: > 100 µM.
With CC(=O)OC(Cc1cc(C=C(C(F)(F)F)C(F)(F)F)cc(C)n1)(C(F)(F)F)C(F)(F)F the GI50 was inactive: 2 µM.
COC(=O)Cc1cccc2c(=O)c(S(=O)(=O)NC(=O)Nc3ccc(Cl)cc3)c(-c3ccccc3)oc12 was tested, and the GI50 was inactive: 38.4 µM.
In the case of COc1cc(C2C(Cl)C(=O)N2NC(=O)c2ccc(NC(C)=O)cc2OC)ccc1O (stereo not given), the GI50 is reported as inactive: 1.39 µM.
For CC1(C)SCc2nc3ncccc3n21, the GI50 was inactive: > 100 µM.
For COP12(OC)NC(=O)OC1(C(F)(F)F)c1ccccc1O2 (stereo not given), the GI50 was inactive: > 100 µM.
With COC(=O)C12CCC(C)(C)CC1C1=CCC3C4(C)CC(O)C(O)C(C)(C(=O)OC)C4CCC3(C)C1(CO)CC2 (stereo not given) the GI50 was inactive: 17.6 µM.
For CCC(CO)COC(=O)/C=C/C(=O)OCC(CC)CO (stereo not given), the GI50 was inactive: > 100 µM.
For O=C(Nc1nc(C23CC4CC(CC(C4)C2)C3)cs1)c1cc2ccccc2oc1=O, the GI50 was inactive: > 100 µM.
For N#CC(NCCc1ccccc1)c1ccc(C(C#N)NCCc2ccccc2)cc1 (stereo not given), the GI50 was inactive: > 100 µM.
In the case of COc1ccc(/C=C2\N=C(c3ccccc3)OC2=O)c(OCc2ccccc2)c1, the GI50 is reported as inactive: 25.3 µM.
For C[N+]12CCCCC1C(COc1cccc3cccnc13)CCC2 (stereo not given), the GI50 was inactive: > 100 µM.
C=C1C(=O)OC2CCCCC3OC3C12 (stereo not given) was tested, and the GI50 was inactive: 21.2 µM.
With C=C1[C@@H](OC(C)=O)/C=C/C2C3C(=O)[C@@](C)(OC(C)=O)[C@H]([C@H](OC(C)=O)[C@]4(O)[C@@H](C)C(=O)O[C@H]4[C@H]1Cl)[C@@]23C (stereo not given in full) the GI50 was inactive: > 100 µM.
For CC1(CCCO)CCCCCC(C)(CCCO)C1=O (stereo not given), the GI50 was inactive: > 100 µM.
In the case of O=C(O)c1ccccc1C1CCCc2c1[nH]c1ccccc21 (stereo not given), the GI50 is reported as inactive: > 100 µM.
In the case of CN(C)/C=N\c1cccc2c1NSN2, the GI50 is reported as inactive: > 100 µM.
CC(C)c1nc2cc(C(F)(F)F)ccc2[nH]c1=O was tested, and the GI50 was inactive: > 100 µM.
For COc1cc2c(cc1OC)C1=Cc3ccc(OC)c(OC)c3C(C#N)N1CC2 (stereo not given), the GI50 was inactive: 75.5 µM.
With NS(=O)(=O)c1cc(S(N)(=O)=O)c(NC(=O)Nc2ccc(Cl)c(Cl)c2)c(Cl)c1Cl the GI50 was inactive: > 100 µM.
O=C(CSCC(=O)N/N=C/c1ccc2c(c1)OCO2)N/N=C/c1ccc2c(c1)OCO2 was tested, and the GI50 was inactive: > 100 µM.
For COc1ccc(-c2c(C#N)c(-c3ccccc3)n(NS(=O)(=O)c3ccccc3)c(=O)c2C#N)cc1, the GI50 was inactive: > 100 µM.
In the case of CS(=O)(=O)N(CCC#N)c1ccc(/C=C2\N=C(c3ccccc3Cl)OC2=O)cc1, the GI50 is reported as inactive: > 100 µM.
CCCCCCNCCc1c[nH]cn1 was tested, and the GI50 was inactive: > 100 µM.
With COc1ccc(-n2c(=O)n(C)c(=O)n2-c2c(C)c(C)c(C)c(C)c2C)cc1 the GI50 was inactive: > 100 µM.
With CC1=CC(=O)C[C@]2(C)[C@@H](O)CC(C(C)CO)C[C@@H]12 (stereo not given in full) the GI50 was inactive: > 100 µM.
For O=C(NCCCN(CCCCN(CCCNC(=O)C(F)(F)F)CCCc1ccccc1)CCCc1ccccc1)C(F)(F)F, the GI50 was inactive: 1.89 µM.
With COC(=O)C1=C(C(=O)OC)C2CCC1CC2=O (stereo not given) the GI50 was inactive: > 100 µM.
With NN/C(=N\S(=O)(=O)c1ccc(-c2ccccn2)s1)Nc1ccc(Cl)cc1 the GI50 was inactive: > 100 µM.
With CC(C)N(C(=O)C12C3C4C1C1C4(C#N)C3C12C(=O)O)C(C)C (stereo not given) the GI50 was inactive: > 100 µM.
COc1cc(C2S/C(=C/c3ccccc3)C(=O)N2c2cccc(Cl)c2)cc(OC)c1OC (stereo not given) was tested, and the GI50 was inactive: 43 µM.
In the case of c1ccc(CN2CCC(=NN3CCCCC3)CC2)cc1, the GI50 is reported as inactive: > 100 µM.
For O=C(CCc1n[nH]c(=S)o1)Nc1ccc(Cl)cc1Cl, the GI50 was inactive: > 100 µM.
With CC(C)NC(=O)OCc1c(COC(=O)NC(C)C)n(C)c2c1ccc1ccccc12 the GI50 was inactive: 4.9 µM.
With CC1=C(C(=O)NNC(=O)Cc2ccccc2)CC(C(=O)NNC(=O)Cc2ccccc2)=C(C)N1 the GI50 was inactive: > 100 µM.
For Nc1nc2c(ncn2C2C=CC(COS(N)(=O)=O)C2)c(=O)[nH]1 (stereo not given), the GI50 was inactive: > 100 µM.
With O=[N+]([O-])c1nccn1CC(O)c1ccccc1 (stereo not given) the GI50 was inactive: > 100 µM.
In the case of CC1=C(C(=O)Nc2ccccc2C)C(c2ccccc2)C(C(=O)Nc2ccccc2C)=C(C)N1, the GI50 is reported as inactive: > 100 µM.
O=C(Nc1cc2c(=O)[nH]c3ccccc3c2oc1=O)c1cnccn1 was tested, and the GI50 was inactive: > 100 µM.
For C#CCCCOc1ncccn1, the GI50 was inactive: > 100 µM.
N#CC12CCC1C1CCCCC12N1CCSCC1 (stereo not given) was tested, and the GI50 was inactive: > 100 µM.
With COc1ccc(-n2c(C)nc3ccc(NC(=S)Nc4ccccc4)cc3c2=O)cc1 the GI50 was inactive: > 100 µM.
In the case of O=C1CCCC1NC(=O)C(F)(F)F (stereo not given), the GI50 is reported as inactive: > 100 µM.
Cn1c(=O)c2sc3c4sc5c(=O)n(C)c6ccccc6c5c4sc3c2c2ccccc21 was tested, and the GI50 was inactive: > 100 µM.
For NC(Cc1ccc(S(=O)(=O)O)cc1)C(=O)NC(Cc1ccc(S(=O)(=O)O)cc1)C(=O)NC(Cc1ccc(S(=O)(=O)O)cc1)C(=O)O (stereo not given), the GI50 was inactive: > 100 µM.
In the case of C=C1C(=O)CCC1C(=O)O (stereo not given), the GI50 is reported as inactive: > 100 µM.
For CC(=O)OCC1OC(OC2CC3C(C)(C)C(O)CC[C@]3(C)C3CCC45CC4(CC[C@H]5C(C)CC(O)C4OC4(C)C)[C@]23C)C(O)C(O)C1O (stereo not given in full), the GI50 was inactive: 7.08 µM.
For CC1CCC2(OCCO2)[C@]2(C)CC(O)C(=O)C=C12 (stereo not given in full), the GI50 was inactive: > 100 µM.
For COc1cc2c(c(OC)c1O)-c1ccc(OC)c(=O)cc1[C@@H](NC(=O)C(F)(F)F)CC2, the GI50 was active: 0.508 µM.
In the case of C/C(=N\NC(=S)N1CCCCCC1)c1ccccn1, the GI50 is reported as active: 0.0024 µM.
In the case of CC(=O)OC1CC2CC(=O)CC1N2C (stereo not given), the GI50 is reported as inactive: > 100 µM.
In the case of COc1cc(OC)c2c(=O)cc(-c3ccc(OC)c(OC)c3OC)oc2c1, the GI50 is reported as inactive: > 100 µM.
